Screen size: about 310,000 compounds; about 2,200 (0.71%) showed an effect of 50% or more. The effect is printed as a negative number. This is one part of the list.
molecular target: human ether-à-go-go-related gene (hERG) potassium channel (human, UniProt Q12809); experiment: primary screen, population patch clamp on CHO cells stably expressing hERG
Sequence (Q12809 whole entry, looked up): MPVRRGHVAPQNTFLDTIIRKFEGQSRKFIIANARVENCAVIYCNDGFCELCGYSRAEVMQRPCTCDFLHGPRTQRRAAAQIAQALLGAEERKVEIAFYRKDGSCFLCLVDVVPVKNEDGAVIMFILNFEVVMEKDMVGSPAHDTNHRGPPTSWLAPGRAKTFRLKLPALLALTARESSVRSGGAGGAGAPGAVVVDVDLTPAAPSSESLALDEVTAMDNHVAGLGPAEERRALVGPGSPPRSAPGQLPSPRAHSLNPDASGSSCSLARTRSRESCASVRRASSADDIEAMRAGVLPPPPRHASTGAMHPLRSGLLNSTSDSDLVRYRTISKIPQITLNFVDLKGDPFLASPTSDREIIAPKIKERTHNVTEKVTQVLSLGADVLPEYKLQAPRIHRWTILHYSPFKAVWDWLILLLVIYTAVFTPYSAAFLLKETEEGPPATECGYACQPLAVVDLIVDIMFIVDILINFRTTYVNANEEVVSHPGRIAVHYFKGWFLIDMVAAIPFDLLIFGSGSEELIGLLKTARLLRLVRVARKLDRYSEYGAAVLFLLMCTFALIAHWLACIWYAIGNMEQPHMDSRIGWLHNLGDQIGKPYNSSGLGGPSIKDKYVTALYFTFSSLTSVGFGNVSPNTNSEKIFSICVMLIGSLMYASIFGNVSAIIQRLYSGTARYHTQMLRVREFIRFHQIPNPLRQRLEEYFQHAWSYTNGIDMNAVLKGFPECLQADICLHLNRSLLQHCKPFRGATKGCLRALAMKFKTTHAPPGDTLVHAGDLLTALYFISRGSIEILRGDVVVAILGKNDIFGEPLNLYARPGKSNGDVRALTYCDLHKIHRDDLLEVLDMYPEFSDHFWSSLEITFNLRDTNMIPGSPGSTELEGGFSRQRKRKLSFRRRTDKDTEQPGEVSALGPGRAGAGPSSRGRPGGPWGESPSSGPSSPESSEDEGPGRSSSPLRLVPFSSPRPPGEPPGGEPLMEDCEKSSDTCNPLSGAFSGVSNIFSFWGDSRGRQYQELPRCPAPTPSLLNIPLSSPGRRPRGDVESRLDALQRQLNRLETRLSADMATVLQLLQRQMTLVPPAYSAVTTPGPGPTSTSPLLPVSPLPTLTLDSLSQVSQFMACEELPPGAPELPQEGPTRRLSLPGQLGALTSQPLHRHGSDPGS

Row | Compound | hERG current change (%, negative = inhibition) at 1uM [%]
1 | COc1ccc(OC)c(NC(=O)c2ccc(CSc3nnc(C)s3)cc2)c1 | 9.22
2 | O=C(c1ccccc1[N+](=O)[O-])N1CCc2ccccc2C1 | 8.58
3 | O=c1c2ccccc2c(C=Nc2ccccc2O)c(O)n1-c1nccs1 | 8.26
4 | Cc1nc2cc(NC(=O)CCS(=O)(=O)c3ccccc3)ccc2s1 | 10.1
5 | O=C(NCc1cccnc1)c1cc(-c2ccc(Cl)cc2)oc1C(F)(F)F | 10.5
6 | CCn1nc(C)c(Br)c1-c1nc(CS(=O)(=O)c2ccsc2)no1 | 9.13
7 | Cc1ccc(-n2ncc(C#N)c2N)cc1 | 9.2
8 | CN(C(=O)COC(=O)CN1C(=O)C2CC=CCC2C1=O)c1ccccc1 (stereo not drawn) | 19
9 | CCN(CC)c1ccc(/C=N/NC(=O)CNC(=O)C2COc3ccccc3O2)c(O)c1 (stereo not drawn) | -2.1
10 | CCOc1cc(/C=N/Nc2ncnc(Cl)c2N)ccc1O | 17.8
11 | COc1cc([N+](=O)[O-])c(C(=O)N2CCOCC2)c([N+](=O)[O-])c1 | 9.84
12 | O=[N+]([O-])c1cc(Cl)c(Cl)c(Cl)c1Cl | 18.5
13 | COC(=O)c1cc2c(N)c(C(=O)c3ccc(Cl)cc3)sc2nc1C(OC)OC | -32.2
14 | CC1CN(c2ccc(Cl)nn2)CC(C)O1 (stereo not drawn) | -5.24
15 | Cc1cc(NC(=O)CCC(=O)N(CC(=O)NC2CCCC2)c2ccc3c(c2)OCCO3)no1 | 10.3
16 | COC(=O)C(c1ccccc1)C1(O)CC(C)N(C)CC1C (stereo not drawn) | 6.08
17 | Cc1ccc(OCC(=O)Nc2ccc([N+](=O)[O-])cc2)cc1 | 10.8
18 | O=C1CC(C(=O)Nc2ccc(F)cc2)S/C(=N\N=C\c2ccco2)N1 (stereo not drawn) | 9.9
19 | O=C(CN1CCN(S(=O)(=O)c2ccc(Cl)cc2)CC1)Nc1ccc2c(c1)CCC2 | 10.6
20 | COC(=O)c1nn(-c2cccc(C)c2)c2nnc(Cc3ccc(C)cc3)c(=O)n12 | 4.21
21 | CC1CCN(C(=O)CSc2nc3ccccc3[nH]2)CC1 | -4.01
22 | O=C(NCc1ccncc1)C(=O)NCC1OCCCN1S(=O)(=O)c1cc(F)ccc1F (stereo not drawn) | 8.04
23 | N/C(=N\OC(=O)c1ccc(=O)n(Cc2ccccc2)c1)c1ccccn1 | 23.4

Row | Compound | hERG current change (%, negative = inhibition) at 1uM [%]
24 | CC(=O)Nc1ccc(NC(=O)c2cc(-c3ccc(C)c(C)c3O)n[nH]2)cc1 | 11.6
25 | Cc1ccccc1-c1nc(CS(=O)(=O)CC(=O)NCCCN2CCOCC2)c(C)o1 | 9.57
26 | CCC(C)(C)NC(=O)C(c1ccc(OC)cc1)N(C(=O)CCC(=O)Nc1cc(C)on1)c1cccc(OC)c1 (stereo not drawn) | 13.8
27 | Cc1cc(C(=O)CCC(=O)Nc2ccc(S(N)(=O)=O)cc2)c(C)s1 | 13.9
28 | O=C(Oc1ccc2c(c1)OCO2)c1cc2c(s1)CCC2 | 13.2
29 | COC(=O)c1cc(-c2ccccc2)on1 | -5.82
30 | Cc1ccc(S(=O)(=O)N2CCOC2CNC(=O)C(=O)NCCN2CCOCC2)cc1 (stereo not drawn) | 13.6
31 | COc1ccc(C(C(=O)NC2CCCC2)N(Cc2ccccc2)C(=O)c2nsc(Cl)c2Cl)cc1 (stereo not drawn) | 14.7
32 | CC(OC(=O)c1ccco1)C(=O)Nc1ncc(Cl)cc1Cl (stereo not drawn) | 10.8
33 | CC(=O)Oc1ccc(-c2cccc(C(=O)N(C)c3ccc(O)cc3)c2)cc1 | -1.3
34 | CCOC(=O)c1c(C)[nH]c(C(=O)OCC(=O)N(C)CC(=O)Nc2ccccc2Cl)c1C | 4.78
35 | COC(=O)c1ccc(NC(=O)COc2ccc([N+](=O)[O-])cc2)cc1 | 13.8
36 | COc1ccc(Cl)cc1NC(=O)CN1CCC(n2nnc3ccccc32)CC1 | -8.77
37 | Cc1ccc(NC(=O)CNC(=O)c2ccc(C)o2)cc1 | 9.4
38 | CC(C)(C)SCCNC(=O)c1cccc([N+](=O)[O-])c1 | 15.5
39 | Cc1ccc(C2=CC(=O)CC(C)(C)C2)cc1 | 5.52
40 | O=C(CN1CCCCC1)Nc1cccc(-n2cnnn2)c1 | 8.34
41 | O=Cc1cccc(Oc2ncccn2)c1 | 9.51
42 | Nc1c(C(=O)NCCc2ccccc2)sc2nc(N3CCOCC3)c3c(c12)CCCC3 | 6.15
43 | O=C(Nc1ccn(Cc2ccccc2)n1)c1ccc2c(c1)OCO2 | 3.52
44 | Cc1ccccc1NS(=O)(=O)c1cccc2nsnc12 | 16
45 | O=C1c2ccccc2C(=O)N1CNc1ccccc1 | 25.5
46 | COc1ccc(N2CCN(C(CNS(C)(=O)=O)c3ccco3)CC2)cc1 (stereo not drawn) | 9.6

Row | Compound | hERG current change (%, negative = inhibition) at 1uM [%]
47 | COc1ccc(CNC(=O)Cn2cccc2C(=O)c2ccccc2C)cc1 | 18.5
48 | CC(=NCCc1ccccc1)C1=C(O)CSC1=O | 1.53
49 | O/N=C/c1ccc(OCC(O)COc2ccc(/C=N/O)cc2)cc1 | -18.6
50 | NC(=O)c1ccc(N=C2C(=O)Nc3ccc([N+](=O)[O-])cc32)cc1 | 13.3
51 | Cc1ccccc1CSCCNC(=O)Nc1ccccc1 | 13.1
52 | Clc1ccccc1Cn1nc(-c2ccccc2)nc1-c1ccccc1 | 7.67
53 | Cc1sc2ncnc(N[C@@H](Cc3ccccc3)C(=O)O)c2c1C | 1.61
54 | COc1ccc(-n2cc(-c3ccc(OC)c(OC)c3)[nH]c2=S)cc1 | 13
55 | CC(=O)Nc1ccc(SCC(=O)O)cc1 | 5.4
56 | COc1ccc2c(C)nc(N/C(N)=N/S(=O)(=O)c3ccc(C)cc3)nc2c1 | 10.4
57 | Cc1cc(NC(=O)CSc2nc(-c3cccnc3)ccc2C#N)no1 | 10.7
58 | O=C(O)c1ccc(-c2noc(-c3ccc(F)cc3)n2)cc1 | 13.5
59 | O=C(NN1C(=O)c2ccccc2C1=O)C1C2CCCCC21 (stereo not drawn) | 10.5
60 | COc1ccc(Cl)cc1NC(=O)c1ccc2c(SCC(=O)O)c3c(nc2c1)CCCC3 | 19.2
61 | CCCNC(=O)N1C2CCC1CC(O)(c1cccnc1)C2 (stereo not drawn) | 2.34
62 | COc1ccc(NS(=O)(=O)c2cc(NC(=O)c3ccc(=O)[nH]n3)ccc2N2CCOCC2)cc1 | 0.0942
63 | COc1ccccc1NC(=O)N1CCCC1C(=O)Nc1nnc(C(C)C)s1 (stereo not drawn) | -1.75
64 | CCCCc1c(O)nc(SCC(=O)c2ccccc2)n(-c2ccccc2OC)c1=O | 11.7
65 | O=C(NCC1CCCO1)C(=O)c1c[nH]c2ccccc12 (stereo not drawn) | -6.28
66 | N=C1C(c2nc3ccccc3s2)=C(O)CN1NC(=O)c1ccccc1[N+](=O)[O-] | 17.8
67 | COC(=O)c1ccc(Cl)cc1N(Cc1c(F)cccc1Cl)S(C)(=O)=O | 2.41
68 | CCOC(=O)c1sc(NS(=O)(=O)c2ccc(C)cc2)nc1C | 0.546
69 | COCCn1c(Cc2ccccc2)nnc1SCC(=O)NC(C)C | 0.736

Row | Compound | hERG current change (%, negative = inhibition) at 1uM [%]
70 | CC(c1ccco1)N(C(=O)c1ccccc1F)c1ccccn1 (stereo not drawn) | 2.74
71 | CS(=O)(=O)N(CC(=O)N1CCCCCC1)c1cc(Cl)ccc1Cl | 18.7
72 | COc1ccc(C(=O)c2cnc[nH]2)cc1 | 10.8
73 | Cc1ccc(-c2ccc(=O)n(CC(=O)NCc3ccco3)n2)cc1 | -0.208
74 | COc1ccc(C(=O)C2CCCN(Cc3nc4ccccc4nc3C)C2)cc1OC (stereo not drawn) | -83.3
75 | O=C(Nc1ccccc1)C1=C(O)CC(c2ccco2)CC1=Nc1ccccc1 (stereo not drawn) | 17
76 | O=C(O)c1ccc(N/N=C/c2cc(Br)cs2)cc1 | 18.1
77 | Cc1nc(=S)n(-c2ccccc2)[nH]1 | 14.4
78 | Cc1cc(CNC(=O)[C@H](C)[C@@H]2C[C@@]2(C)[C@@H](NC(=O)OCc2ccccc2)c2ccccc2)nn1C | 7.5
79 | CN(Cc1ccccc1)C1CC(=O)N(c2ccc(C(=O)O)cc2)C1=O (stereo not drawn) | 5.74
80 | CCOc1ccc(C2C(C(=O)c3cccs3)=C(O)C(=O)N2CCN2CCOCC2)cc1 (stereo not drawn) | -1.11
81 | COc1cc2c(cc1OC)C(C)N(C(=O)C(NC(=O)c1ccccc1)C(C)C)CC2 (stereo not drawn) | 7.28
82 | Cc1cc(C)c(S(=O)(=O)N2CCCOC2CNC(=O)C(=O)NCc2cccnc2)c(C)c1 (stereo not drawn) | 11.6
83 | COCCNC(=O)/C(C#N)=C/c1ccc(SC)cc1 | 9.79
84 | CN(c1ccccc1C(=O)Nc1ccc2c(c1)n(C)c(=O)n2C)S(C)(=O)=O | 15.4
85 | CN(CCCNC(=O)CCC(=O)N1CCOc2ccccc21)Cc1ccccc1 | 0.0159
86 | O=c1c2ccccc2nc(-c2cccs2)n1-c1ccccc1 | 11.9
87 | O=C(O)c1sccc1Oc1ccc(F)cc1[N+](=O)[O-] | -4.56
88 | CC(Oc1ccccc1)c1ccn[nH]1 (stereo not drawn) | 21.1
89 | C=CCc1cc(/C=C2/NC(=O)N(CC(=O)OC)C2=O)cc(OC)c1O | 11.6
90 | Cc1occc1-c1nnc(SCC(=O)N2CCOCC2)n1Cc1ccco1 | 17.9

From PMC4336329 (PLoS ONE, 2015)
